The text below walks through data of ChEMBL document CHEMBL3871281, “Improved binding affinities of pyrrolidine derivatives as Mcl-1 inhibitors by modifying amino acid side chains” (Bioorg Med Chem, 2017).

Assay [1] addresses Induced myeloid leukemia cell differentiation protein Mcl-1 (Homo sapiens, UniProt Q07820).
The target of assay [2] is Apoptosis regulator Bcl-2 (Homo sapiens, UniProt P10415). As to the kind of experiment: Inhibition of 5-FAM-QEDIIRNIARHLAQVGDSMDRSIPPG binding to Bcl-2 (unknown origin) preincubated for 30 mins followed by FAM-labeled peptide addition measured after 20 mins by fluorescence polarization assay.
Assay [3] can be described thus: Antiproliferative activity against human MDA-MB-231 cells measured after 48 hrs by MTT assay. In kind it is functional, cell-based. Particulars: MDA-MB-231, 48 h.
Assay [4] is described as follows: Antiproliferative activity against human PC3 cells measured after 48 hrs by MTT assay. In kind it is functional, cell-based. The conditions noted are these: PC-3, 48 h.
Assay [5] can be described thus: Antiproliferative activity against human K562 cells measured after 48 hrs by MTT assay. Particulars: K562, 48 h. In kind it is functional, cell-based. Background: Formazan colour is commonly taken as a measure of viable cells.

As a reminder, the Ki is a dissociation constant, usually derived from enzyme kinetics or from competition with a known ligand. Read a low Ki as tighter binding. The IC50 is the concentration needed to halve the response being measured.

UniProt Q07820, sequence (Q07820 whole entry): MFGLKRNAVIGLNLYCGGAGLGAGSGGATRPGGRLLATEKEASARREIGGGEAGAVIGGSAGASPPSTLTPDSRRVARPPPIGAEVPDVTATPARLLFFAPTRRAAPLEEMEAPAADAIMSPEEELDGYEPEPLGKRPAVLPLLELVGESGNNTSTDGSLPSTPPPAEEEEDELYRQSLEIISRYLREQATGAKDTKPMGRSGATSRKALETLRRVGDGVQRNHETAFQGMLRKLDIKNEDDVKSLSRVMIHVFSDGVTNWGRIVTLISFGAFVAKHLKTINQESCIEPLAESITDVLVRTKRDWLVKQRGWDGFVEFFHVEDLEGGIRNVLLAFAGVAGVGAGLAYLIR
UniProt P10415, sequence (P10415 whole entry): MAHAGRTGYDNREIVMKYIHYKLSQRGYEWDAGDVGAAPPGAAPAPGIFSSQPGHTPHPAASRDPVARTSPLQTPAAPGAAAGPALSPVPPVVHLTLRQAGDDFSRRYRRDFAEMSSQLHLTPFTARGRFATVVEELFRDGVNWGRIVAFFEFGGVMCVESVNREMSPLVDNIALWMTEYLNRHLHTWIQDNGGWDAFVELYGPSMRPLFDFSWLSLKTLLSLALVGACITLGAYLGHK

Molecule `Cc1ccc(-c2ccc(O[C@H]3C[C@@H](C(=O)N[C@@H](Cc4ccc(OCC(C)C)cc4)C(=O)NS(=O)(=O)c4ccc([N+](=O)[O-])cc4)N(C(=O)OC(C)(C)C)C3)cc2)cc1` came in with a Ki in assay [1] of 0.79 µM. That is a sub-micromolar value.

In assay [2], `CC(C)(C)OC(=O)N1C[C@@H](Oc2ccc(-c3ccccc3)cc2)C[C@H]1C(=O)N[C@@H](Cc1ccc(OCc2ccc(Br)cc2)cc1)C(=O)NS(=O)(=O)c1ccc(Cl)c([N+](=O)[O-])c1` showed a Ki of 0.68 µM. Further, the IC50 came to 21.3 µM in assay [3], 10.6 µM in assay [4] and 16.4 µM in assay [5].

Take `CC(C)Oc1ccc(C[C@H](NC(=O)[C@@H]2C[C@H](Oc3ccc(-c4ccccc4)cc3)CN2C(=O)OC(C)(C)C)C(=O)NS(=O)(=O)c2ccccc2)cc1`: in assay [1], the affinity corresponds to a Ki of 8.1 µM.

The molecule `CCCOc1ccc(C[C@H](NC(=O)[C@@H]2C[C@H](Oc3ccc(-c4ccccc4)cc3)CN2C(=O)OC(C)(C)C)C(=O)NS(=O)(=O)c2ccccc2)cc1` showed a Ki in assay [1] of 4 µM.

In the case of `Cc1ccc(-c2ccc(O[C@H]3C[C@@H](C(=O)N[C@@H](Cc4ccc(OCc5ccc([N+](=O)[O-])cc5)cc4)C(=O)NS(=O)(=O)c4ccc(Cl)c([N+](=O)[O-])c4)N(C(=O)OC(C)(C)C)C3)cc2)cc1`, in assay [2], the Ki was found to be 0.75 µM. Also, the IC50 in assay [3] came out at 16.9 µM; in assay [4], 8.45 µM; in assay [5] it was 16.6 µM.

Consider `Cc1ccc(-c2ccc(O[C@@H]3CN[C@H](C(=O)N[C@@H](Cc4ccccc4)C(=O)NS(=O)(=O)c4ccc(Cl)c([N+](=O)[O-])c4)C3)cc2)cc1`, for which the Ki in assay [1] was 1.3 µM.

Turning to `CC(C)COc1ccc(C[C@H](NC(=O)[C@@H]2C[C@H](Oc3ccc(-c4ccccc4)cc3)CN2C(=O)OC(C)(C)C)C(=O)NS(=O)(=O)c2ccccc2)cc1`, the affinity in assay [1] corresponds to a Ki of 2 µM.

`CC(C)(C)OC(=O)N1C[C@@H](Oc2ccc(-c3ccccc3)cc2)C[C@H]1C(=O)N[C@@H](Cc1ccc(O[Si](C)(C)C(C)(C)C)cc1)C(=O)NS(=O)(=O)c1ccc(Cl)c([N+](=O)[O-])c1`: in assay [2], the Ki stood at 0.93 µM. Besides, the values for the IC50 in assay [3], in assay [4] and in assay [5] were 23.4 µM, 10.2 µM and 17.3 µM, respectively.

Regarding `CC(C)(C)OC(=O)N1C[C@@H](Oc2ccc(-c3ccc(Cl)cc3)cc2)C[C@H]1C(=O)N[C@@H](Cc1ccc(OCCc2ccccc2)cc1)C(=O)NS(=O)(=O)c1ccc(Cl)c([N+](=O)[O-])c1`, in assay [2], the affinity, expressed as Ki, was 0.67 µM. The IC50 in assay [3] turned out to be 25.2 µM; in assay [4] it was 13.2 µM; in assay [5], 17.8 µM.

Molecule `CCCOc1ccc(C[C@H](NC(=O)[C@@H]2C[C@H](Oc3ccc(-c4ccc(C)cc4)cc3)CN2C(=O)OC(C)(C)C)C(=O)NS(=O)(=O)c2ccc([N+](=O)[O-])cc2)cc1` displayed a Ki in assay [1] of 0.9 µM.

`Cc1cc2c(C(C)C)c(O)c(O)c(C=O)c2c(O)c1-c1c(C)cc2c(C(C)C)c(O)c(O)c(C=O)c2c1O` [GOSSYPOL]: the IC50 came to 9.23 µM in assay [3], 7.54 µM in assay [4] and 5.6 µM in assay [5].
